The text below walks through data of PMC12136788.

Some of the results follow.

The labels stand for the following.
T1: UNK ZnF1-3 (human, UniProt Q9C0B0 31-174)
T1 sequence: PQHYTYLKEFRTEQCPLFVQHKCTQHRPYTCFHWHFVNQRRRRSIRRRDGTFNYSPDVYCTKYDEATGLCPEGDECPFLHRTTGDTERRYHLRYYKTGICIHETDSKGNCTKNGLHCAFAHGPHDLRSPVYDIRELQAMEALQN

B1: chr4:87735950:87735951:+_ENSG00000163629_ENST00000511467|hu_mus|motif|central (ssRNA)
RNA: GGGAGUUCUACAGUCCGACGAUCUAGACUCAGUGUGUCUUUGUAACAACGUCCACUAUGAUCAAAUGCUGUCUCCAGCCCGGAGACCUGCUGGUUCAGUUAGUGAAAAAGGAGUUUUAAUGACCAUCAGUGGUUGAAGUGGCUCAACAGAGGAUUGAGCAUCA
B2: chr10:73857132:73857133:-_ENSG00000138303_ENST00000317168|hu_mus|FALSE|FALSE (ssRNA)
RNA: GGGAGUUCUACAGUCCGACGAUCUGCUGCUCUCCCGCGUCAGGAGAAGUCAACAUGUCCGCAGGAGGCAUAGUUUCCAAAGCUGUCCACCGUGAACCUCUGGGAGAUGUGAAUAGAAUUGAGCCUCAGGGAACCAAAGUAGAACAACAGAGGAUUGAGCAUCA
B3: chr3:149686290:149686291:-_ENSG00000070087_ENST00000452853|perfect_dup|motif|central (ssRNA)
RNA: GGGAGUUCUACAGUCCGACGAUCUCCAAGAGUCAAACCGUUGGUAAAGAAACCUUCCCGGUCUUUUCCUACAAUCAUAUCGGUUUCGGCUGGCGUGAUGCUCUGGAAGACGCCCCCGGCCGUGGCUGCCCAGACGUAUUUGGCCAACAGAGGAUUGAGCAUCA
B4: chr9:64573397:64573398:-_ENSMUSG00000004771_ENSMUST00000172444|mus_mus|FALSE|FALSE (ssRNA)
RNA: GGGAGUUCUACAGUCCGACGAUCUUGUAGAAUCUAGAGCAGAUGUCUCAAUGAAUGACAAACCAUUCUUCUCUGUAAAAAGAAACAAAAUUUUCAGUCUGGUAAAUUUUGAUUGCUGUUUAAUAGUGUUGGUGAUUGGUGAUCCAACAGAGGAUUGAGCAUCA
B5: 49752772_49760201_1578_3pUTR_ENSG00000102531_ENST00000398316|human|control|control (ssRNA)
RNA: GGGAGUUCUACAGUCCGACGAUCUUUCACUGAAGGCUUUACAGGUAUGCCUGGUUUAUCAGGGCAAGUAGUAAAUUCUACUACUUCACUUGGAUUACUUUUACCUUCUGAGUUGUAAGCAAUAACCUUAAAUUUAUACUUAGUCAACAGAGGAUUGAGCAUCA
B6: chr6:41756983:41756984:+_ENSG00000214736_ENST00000398881|hu_hu|FALSE|FALSE (ssRNA)
RNA: GGGAGUUCUACAGUCCGACGAUCGUCAAUGUCACUCAAGUUCCUGGCCAGCCAAACUCCCGCAGCAAAGAGUCCCAAAUUUAGUAUCAAGUUCCUCCGGAAGUCAUUCCUAUCAGUGGCAAAGCGGUAGACGCCCCGAAGCCACAACAGAGGAUUGAGCAUCA
B7: 42222520_42222640_2667_3pUTR_ENSMUSG00000037287_ENSMUST00000125995|mouse|control|control (ssRNA)
RNA: GGGAGUUCUACAGUCCGACGAUCAAACCAUCCAGAUUAACAAAGAAUGGAAGGCCAAAGAAAAAGAUUUCAGAAUAGGAGAGUAGGUGAGGGGCUGUGUCAAAGGUCAAGUGCUUUAUACACACACACCCCUGCAAAAAACACCAACAGAGGAUUGAGCAUCA
B8: chr3:131220538:131220539:-_ENSG00000114686_ENST00000264995|hu_mus|motif|central (ssRNA)
RNA: GGGAGUUCUACAGUCCGACGAUCUUCUUCAGAAAGAUGUUCAUCCCACCAAGUACUACUCUUGCUGUGGAGAUUUCGGACAAAGAACAAGAUAUUCUUUCUUCUCUCUAAGCCGGGGUCAGCACCUAGGCCUCUGGCGCCACACAACAGAGGAUUGAGCAUCA
B9: chr7:30977587:30977588:-_ENSMUSG00000001794_ENSMUST00000108196|mus_hu|FALSE|FALSE (ssRNA)
RNA: GGGAGUUCUACAGUCCGACGAUCCAGCUGGGCAAAGAGUCUCCGGAACUGCCGGACCUCCUCACUCUCGUUGGCCUCAAUGUUGGAGUAAUGUGUGCGUGGGGGCGGGGGCUCCGGGUUGUACUGCGCAGCCGCCUCGCUGAUCAACAGAGGAUUGAGCAUCA
B10: chr16:75674161:75674162:-_ENSG00000065427_ENST00000302445|hu_mus|motif|central (ssRNA)
RNA: GGGAGUUCUACAGUCCGACGAUCGCGGCCUGCCACUUUGAGGGUGACAUCAGUCAGGUGGUCCCCAGGCUGCAGGUGACGGUAUUCUUGGAUGAACUGAGUGAGUGAGAUGUCCACGUGGAACUUGUGUGGGUACGGAUCCUCCAACAGAGGAUUGAGCAUCA
B11: chr2:29016751:29016752:+_ENSG00000213639_ENST00000296122|perfect_dup|motif|central (ssRNA)
RNA: GGGAGUUCUACAGUCCGACGAUCUUUAGCAAAAAAUUCAUAUCCAUCUUCCACCACCUGAUGAGCUCGACAAAUCAAAUCGGAAUCAUGACGAUUCAGAAAUUUACUGACUACAUCAGCUCCAAAAGUAAAGGAAACACCACGCAACAGAGGAUUGAGCAUCA
B12: chr14:22664367:22664368:+_ENSMUSG00000021771_ENSMUST00000022293|mus_hu|motif|central (ssRNA)
RNA: GGGAGUUCUACAGUCCGACGAUCAGAGAGUGUAAGCUUCACACCAGGCCUCAGAGUCUGAGUAUAGCCUACUCCAAUUAAGCGGGAGUUGUUGACUUUUGCAGAAAUGGAAGCAGUGGGAUCCAACUGAUAUUUAGCUGCAAUCAACAGAGGAUUGAGCAUCA
B13: chr2:91460361:91460362:+_ENSMUSG00000040549_ENSMUST00000099716|mus_mus|FALSE|FALSE (ssRNA)
RNA: GGGAGUUCUACAGUCCGACGAUCUGUGUACAAUGGCCUGCAGCGGCCGCUUCACACUACAGGGCUUCUAGAUCAGUAACUAAAGCUGCAGAGUGCCGAGGGUGGGCAGCUUCAUUUGCGACUGCUCUUUAUUCUCUCCAGUCUCAACAGAGGAUUGAGCAUCA
B14: chr8:103876086:103876087:-_ENSG00000155096_ENST00000347770|hu_hu|FALSE|FALSE (ssRNA)
RNA: GGGAGUUCUACAGUCCGACGAUCCGCCGUGAGAUAACGGCCCAAAGAGUCGGGUAAAGCGUCUUCUCUUUUUCGGCGGAAUUUUUAAAGAGGGAUGUGGUUACCUUGAGCAGAAAUACCCAAGGCGGCCUGGGCCAUAGGCUGCAACAGAGGAUUGAGCAUCA
B15: chr1:29070155:29070156:+_ENSG00000198492_ENST00000541996|hu_mus|FALSE|FALSE (ssRNA)
RNA: GGGAGUUCUACAGUCCGACGAUCACAGCAGAUUUCAUCUCUGCAACUCCACAGAAGUGUCCACUGCCGUUGACACUGAAAAGUAAGUACACGGGACCCUUCCCAUUCAUGGAACGAUAGGCGGCAUCCAGUCUCUUGUUACCACAACAGAGGAUUGAGCAUCA
B16: 181043437_181043557_507_CDS_ENSMUSG00000027581_ENSMUST00000103045|mouse|control|control (ssRNA)
RNA: GGGAGUUCUACAGUCCGACGAUCCUCAGCUGCCUCCAGCCGCUUCUGCAGCUCUUCCAAGGAAGCAUCCUUCCUCUUGGGAGGAGAAGAGAGCACAGGGCUCUCUGGAGAUAGGUCAGAAGGAGACUUGAGGAUGACCUCGAACAACAGAGGAUUGAGCAUCA
B17: 171624459_171624579_2671_3pUTR_ENSMUSG00000026678_ENSMUST00000027997|mouse|control|control (ssRNA)
RNA: GGGAGUUCUACAGUCCGACGAUCGAUGGCAUAAUUUGGUAAAUCUCUAGAAGGGAGUGCUUGUUAGCUUAUCAAUUGAUUUGUUAAUGGAUGCCUACUGCUCUUCAGGAAAUAAUCGAAUCCUUCUCAUAGAAAUGGAUUUUACAACAGAGGAUUGAGCAUCA
B18: chrX:71549762:71549763:+_ENSMUSG00000019087_ENSMUST00000019231|mus_mus|motif|central (ssRNA)
RNA: GGGAGUUCUACAGUCCGACGAUCCCAGUGUACCACUCACUCUUAACACAUCACCCCUCCCCCCCAAAAAACAUAACAGCGGAGCUGGACAGACAGUCAAGUAGUCUUUCCACACCUCGCAAAUUCAAGGAACCUCAAGUUCAUCAACAGAGGAUUGAGCAUCA
B19: 37435813_37435933_5862_3pUTR_ENSMUSG00000026915_ENSMUST00000028279|mouse|control|control (ssRNA)
RNA: GGGAGUUCUACAGUCCGACGAUCUACUGAUUCUGAUAUCCUAGCUCCUUGAACAAGACAGUGCCCUGUCAUUUUGACUCUCCUUAGAUAGUGUUCCUACAACUGAAUUGUUAUAUUCAAGCAGGUGCCUCUGUUAUGUAUAAACAACAGAGGAUUGAGCAUCA
B20: 77214880_77227188_734_CDS_ENSG00000127947_ENST00000248594|human|control|control (ssRNA)
RNA: GGGAGUUCUACAGUCCGACGAUCGAAGUAGUCUGUUCUUGCUUGUUCAUCCUCACAAGAAAUUUUAAAUGGUGCAAACGUUAUGGGGUCUUCUCCAUACAAAGGCCAAUAGCGCUCACAUUUUUUCCUUCCCAUCUCAAAUUCCAACAGAGGAUUGAGCAUCA
B21: chr2:76468371:76468372:-_ENSMUSG00000002731_ENSMUST00000002808|mus_hu|FALSE|FALSE (ssRNA)
RNA: GGGAGUUCUACAGUCCGACGAUCUGAGGAGAUAAUUAAAUCUGGAGUGUUGAUGGAAUCUAUGAAGAGAUUUAGAAACAAGACAUAAACACUACGGUAAAAGUUUUACUUGGGAAGGGGCCAGAGGGGAACUUUUUAUGUGCUCAACAGAGGAUUGAGCAUCA
B22: chr4:95690885:95690886:+_ENSMUSG00000028572_ENSMUST00000156910|mus_hu|FALSE|FALSE (ssRNA)
RNA: GGGAGUUCUACAGUCCGACGAUCUUUAGAAAAUGUUAAAUACCAUGCUAAAAUAUUUUCAAAGGCUUAUUUUAUUUUACCAGAAGUCACAGGCAAGCAGACACUACAAGAAUAUAUGAAAAUGAAACUCAACAAUAUAACUGUCAACAGAGGAUUGAGCAUCA

This test has as its target T1, UNK ZnF1-3. Put plainly: nsRBNS (natural sequence RNA bind-n-seq); RBNS binding buffer (assumed for nsRBNS): 25 mM Tris pH 7.5, 150 mM KCl, 3 mM MgCl2, 0.01% Triton X-100, 500 ug/ml BSA, 20 U/ml SUPERase-In, 4 C; UNK is unkempt and MSI1 is Musashi-1; names of the RNAs are library labels; protein concentration not given here; high values mean tight binding.
B1 showed a binding signal of 0.592 enrichment R.

Molecule B2 displayed a binding signal of 1.73 enrichment R.

Molecule B3 came in with a binding signal of 0.88 enrichment R.

The molecule B4 had a binding signal of 0.821 enrichment R.

With B5, the binding signal turned out to be 0.768 enrichment R.

The molecule B6 displayed a binding signal of 1.63 enrichment R.

In the case of B7, the binding signal amounted to 1.49 enrichment R.

On to B8, for which the binding signal is 0.785 enrichment R.

B9 returned a binding signal of 0.638 enrichment R.

B10 registered a binding signal of 1.13 enrichment R.

Consider B11, for which the binding signal is 1.36 enrichment R.

Turning to B12, the binding signal worked out at 1.06 enrichment R.

Molecule B13 had a binding signal of 0.644 enrichment R.

For the molecule B14, the binding signal stood at 0.955 enrichment R.

B15 yielded a binding signal of 0.655 enrichment R.

B16 gave a binding signal of 1.04 enrichment R.

In turn, B17 registered a binding signal of 1.84 enrichment R.

B18: the binding signal worked out at 1.57 enrichment R.

B19 gave a binding signal of 0.874 enrichment R.

Regarding B20, the binding signal stood at 0.662 enrichment R.

B21 had a binding signal of 2.26 enrichment R.

In turn, B22 had a binding signal of 1.55 enrichment R.
